In the supplement of paper PMC4604168 (melanoma cell lines) one finds cell count data, which are given here for 23 compounds.

Some of the results follow. Single values are uncertain, as repeats are few or missing.

Test systems include WM115; WM1716; WM1745; WM3526; WM3619; WM451Lu.
What all share (assay): cell count relative to DMSO control; melanoma cells; higher = more viable cells
What all share (conditions): library dose: low library concentration; 72 h
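Note: cell number obtained by counting DAPI-stained nuclei in high-throughput microscope images with image analysis software, screen run in 1,536-well plates.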

With `COc1ccc(C2=N[C@@H](c3ccc(Cl)cc3)[C@@H](c3ccc(Cl)cc3)N2C(=O)N2CCNC(=O)C2)c(OC(C)C)c1` [Nutlin-3] + CCCCCCCCc1ccc(CCC(N)(CO)CO)cc1 [fingolimod] (first compound 0.1 µM, partner dose 2 µM), the cell count amounted to 91.7% with WM115; 75.4% with WM1716; 79.7% in the test with WM1745; 84.2% in the test on WM3526; 84.3% in the test with WM3619; 130% with WM451Lu.

As for `Cc1cn(-c2cc(NC(=O)c3ccc(C)c(Nc4nccc(-c5cccnc5)n4)c3)cc(C(F)(F)F)c2)cn1` [nilotinib] + COc1cc(N2CCC(N3CCN(C)CC3)CC2)ccc1Nc1ncc(Cl)c(Nc2ccccc2S(=O)(=O)C(C)C)n1 [NVP-TAE684] (first compound 0.2 µM, partner dose 0.08 µM), the cell count with WM115 turned out to be 93.3%; with WM1716 it was 104%; in the test with WM1745, 72%; in the test on WM3526, 79.5%; with WM3619 it was 58.2%; in the test on WM451Lu it was 89.5%.

Take `CC(C)C[C@H](NC(=O)[C@H](Cc1ccccc1)NC(=O)c1cnccn1)B(O)O` [Bortezomib] + Oc1nc(-c2ccc(C(F)(F)F)cc2)nc2c1CSCC2 [XAV939] (first compound 0.001 µM, partner dose 2 µM): the cell count with WM115 amounted to 93.6%; in the test on WM1716 it was 43.5%; in the test with WM1745, 91.9%; in the test on WM3526, 96.6%; with WM3619, 85.7%; in the test on WM451Lu, 95.6%.

For `CC(C)C[C@H](NC(=O)[C@H](Cc1ccccc1)NC(=O)c1cnccn1)B(O)O` [Bortezomib] + NC(=O)Nc1cc(-c2cccc(F)c2)sc1C(=O)N[C@H]1CCCNC1 [AZD7762] (first compound 0.001 µM, partner dose 0.02 µM), the cell count stood at 93.7% with WM115; 35.4% in the test on WM1716; 95.8% in the test on WM1745; 88.5% in the test with WM3526; 24.5% with WM3619; 89% in the test on WM451Lu.

In the case of `Cn1c(=O)n(-c2ccc(C(C)(C)C#N)cc2)c2c3cc(-c4cnc5ccccc5c4)ccc3ncc21` + O=C(O)c1ccc(-c2c[nH]c3ncc(-c4ccccc4)cc23)cc1C1CCCC1 [GSK650394] (first compound 0.004 µM, partner dose 0.16 µM), the cell count was determined as 89.4% with WM115; 89.6% in the test with WM1716; 91.7% in the test with WM1745; 94.3% in the test with WM3526; 83.3% in the test with WM3619; 119% in the test on WM451Lu.

`Cc1cn(-c2cc(NC(=O)c3ccc(C)c(Nc4nccc(-c5cccnc5)n4)c3)cc(C(F)(F)F)c2)cn1` [nilotinib] + CO[C@H]1C[C@@H]2CC[C@@H](C)[C@@](O)(O2)C(=O)C(=O)N2CCCC[C@H]2C(=O)O[C@H]([C@H](C)C[C@@H]2CC[C@@H](OCCO)[C@H](OC)C2)CC(=O)[C@H](C)/C=C(\C)[C@@H](O)[C@@H](OC)C(=O)[C@H](C)C[C@H](C)/C=C/C=C/C=C/1C [everolimus] (first compound 0.2 µM, partner dose 0.02 µM): the cell count was determined as 78.9% with WM115; 75.8% in the test with WM1716; 74.7% in the test with WM1745; 75.2% in the test on WM3526; 89.6% in the test with WM3619; 94.3% in the test with WM451Lu.

As for `Cn1c(=O)n(-c2ccc(C(C)(C)C#N)cc2)c2c3cc(-c4cnc5ccccc5c4)ccc3ncc21` + Cc1cc(N2CCOCC2)cc2[nH]c(-c3c(NC[C@@H](O)c4cccc(Cl)c4)cc[nH]c3=O)nc12 [BMS536924] (first compound 0.004 µM, partner dose 0.2 µM), the cell count in the test with WM115 was determined as 108%; in the test with WM1716, 71.7%; in the test with WM1745, 80.8%; with WM3526, 94%; in the test with WM3619, 97.4%; in the test with WM451Lu, 93.2%.

Regarding `Cc1cc(Nc2cc(N3CCN(C)CC3)nc(/C=C/c3ccccc3)n2)n[nH]1` + CNC(=O)c1cc(Oc2ccc(NC(=O)Nc3ccc(Cl)c(C(F)(F)F)c3)cc2)ccn1 [sorafenib] (first compound 0.04 µM, partner dose 0.4 µM), the cell count in the test with WM115 turned out to be 105%; in the test on WM1716 it was 103%; in the test with WM1745, 77.4%; in the test with WM3526 it was 105%; with WM3619, 85.7%; in the test on WM451Lu, 83.7%.

As for `COc1ccc(C2=N[C@@H](c3ccc(Cl)cc3)[C@@H](c3ccc(Cl)cc3)N2C(=O)N2CCNC(=O)C2)c(OC(C)C)c1` [Nutlin-3] + Cn1cncc1[C@@](N)(c1ccc(Cl)cc1)c1ccc2c(c1)c(-c1cccc(Cl)c1)cc(=O)n2C [tipifarnib] (first compound 0.1 µM, partner dose 0.01 µM), the cell count was 82% in the test with WM115; 71.5% in the test with WM1716; 98% in the test on WM1745; 90.7% in the test on WM3526; 116% with WM3619; 100% in the test on WM451Lu.

As for `Cn1c(=O)n(-c2ccc(C(C)(C)C#N)cc2)c2c3cc(-c4cnc5ccccc5c4)ccc3ncc21` + O=C(O)C(=O)Nc1sc2c(c1C(=O)O)CCNC2 [TCS401] (first compound 0.004 µM, partner dose 1.66667 µM), the cell count amounted to 84.9% in the test with WM115; 92.6% in the test with WM1716; 92.1% in the test on WM1745; 78.6% in the test with WM3526; 119% with WM3619; 96.6% with WM451Lu.

With `COc1ccc(C2=N[C@@H](c3ccc(Cl)cc3)[C@@H](c3ccc(Cl)cc3)N2C(=O)N2CCNC(=O)C2)c(OC(C)C)c1` [Nutlin-3] + C[C@]1(c2nc3c(C(N)=O)cccc3[nH]2)CCCN1 [Veliparib] (first compound 0.1 µM, partner dose 1.4 µM), the cell count is 76% with WM115; 78.2% with WM1716; 104% with WM1745; 99.1% in the test on WM3526; 74.1% in the test on WM3619; 87% with WM451Lu.

Take `Cc1cc(Nc2cc(N3CCN(C)CC3)nc(/C=C/c3ccccc3)n2)n[nH]1` + NC1(c2ccc(-c3nc4ccn5c(=O)[nH]nc5c4cc3-c3ccccc3)cc2)CCC1 [MK2206] (first compound 0.04 µM, partner dose 0.4 µM): the cell count is 79.5% with WM115; 87.8% with WM1716; 77.6% in the test on WM1745; 71.4% in the test with WM3526; 85.5% with WM3619; 88.2% with WM451Lu.

Turning to `Cc1cn(-c2cc(NC(=O)c3ccc(C)c(Nc4nccc(-c5cccnc5)n4)c3)cc(C(F)(F)F)c2)cn1` [nilotinib] + C[C@]1(O)C[C@@H](c2nc(-c3ccc4ccc(-c5ccccc5)nc4c3)c3c(N)nccn32)C1 [OSI906] (first compound 0.2 µM, partner dose 0.4 µM), the cell count was determined as 98.7% with WM115; 83.5% in the test with WM1716; 57% in the test on WM1745; 85% in the test on WM3526; 89.2% in the test with WM3619; 93.5% in the test on WM451Lu.

`CC(C)C[C@H](NC(=O)[C@H](Cc1ccccc1)NC(=O)c1cnccn1)B(O)O` [Bortezomib] + CN(NC(=O)CC(=O)NN(C)C(=S)c1ccccc1)C(=S)c1ccccc1 [STA4783] (first compound 0.001 µM, partner dose 0.006 µM): the cell count is 80.9% with WM115; 31.7% in the test with WM1716; 35.7% in the test on WM1745; 84.9% in the test with WM3526; 16.5% in the test on WM3619; 96.2% in the test with WM451Lu.

As to `COc1ccc(C2=N[C@@H](c3ccc(Cl)cc3)[C@@H](c3ccc(Cl)cc3)N2C(=O)N2CCNC(=O)C2)c(OC(C)C)c1` [Nutlin-3] + C=CCn1c(=O)c2cnc(Nc3ccc(N4CCN(C)CC4)cc3)nc2n1-c1cccc(C(C)(C)O)n1 [MK1775] (first compound 0.1 µM, partner dose 0.02 µM), the cell count worked out at 68.7% in the test on WM115; 75.3% with WM1716; 76.2% in the test with WM1745; 81.8% with WM3526; 70.6% with WM3619; 103% in the test on WM451Lu.

In the case of `Cc1cc(Nc2cc(N3CCN(C)CC3)nc(/C=C/c3ccccc3)n2)n[nH]1` + Cn1cc(/C=C2\C(=O)Nc3cccnc32)c2ccccc21 [GW441756] (first compound 0.04 µM, partner dose 0.4 µM), the cell count in the test with WM115 came out at 83.5%; in the test with WM1716 it was 122%; in the test with WM1745, 84.9%; in the test with WM3526 it was 106%; in the test with WM3619 it was 109%; in the test on WM451Lu, 99.7%.

Turning to `Cc1cc(Nc2cc(N3CCN(C)CC3)nc(/C=C/c3ccccc3)n2)n[nH]1` + CCc1ccc(CCOc2ccc(CC3SC(=O)NC3=O)cc2)nc1 [pioglitazone] (first compound 0.04 µM, partner dose 2 µM), the cell count was 97.2% with WM115; 101% in the test on WM1716; 90.1% in the test on WM1745; 99.6% with WM3526; 113% in the test on WM3619; 96.8% in the test on WM451Lu.

For `COc1ccc(C2=N[C@@H](c3ccc(Cl)cc3)[C@@H](c3ccc(Cl)cc3)N2C(=O)N2CCNC(=O)C2)c(OC(C)C)c1` [Nutlin-3] + Cn1c(=O)n(-c2ccc(C(C)(C)C#N)cc2)c2c3cc(-c4cnc5ccccc5c4)ccc3ncc21 [NVP-BEZ235] (first compound 0.1 µM, partner dose 0.004 µM), the cell count in the test on WM115 is 78.6%; with WM1716, 83.2%; with WM1745, 104%; with WM3526, 76.2%; in the test with WM3619, 97.7%; in the test with WM451Lu, 102%.

On to `Cc1cn(-c2cc(NC(=O)c3ccc(C)c(Nc4nccc(-c5cccnc5)n4)c3)cc(C(F)(F)F)c2)cn1` [nilotinib] + CCN(CC)CCCCNc1ncc2cc(-c3cc(OC)cc(OC)c3)c(NC(=O)NC(C)(C)C)nc2n1 [PD173074] (first compound 0.2 µM, partner dose 0.1 µM), for which the cell count with WM115 was found to be 110%; in the test on WM1716 it was 101%; in the test with WM1745 it was 89.7%; in the test with WM3526 it was 128%; with WM3619 it was 127%; with WM451Lu, 114%.

With `COc1ccc(C2=N[C@@H](c3ccc(Cl)cc3)[C@@H](c3ccc(Cl)cc3)N2C(=O)N2CCNC(=O)C2)c(OC(C)C)c1` [Nutlin-3] + CN(c1ncccc1CNc1nc(Nc2ccc3c(c2)CC(=O)N3)ncc1C(F)(F)F)S(C)(=O)=O [PF562271] (first compound 0.1 µM, partner dose 0.08 µM), the cell count is 77.4% with WM115; 89.7% in the test with WM1716; 102% in the test on WM1745; 95.4% in the test on WM3526; 102% in the test on WM3619; 67% in the test on WM451Lu.

For `Cc1cn(-c2cc(NC(=O)c3ccc(C)c(Nc4nccc(-c5cccnc5)n4)c3)cc(C(F)(F)F)c2)cn1` [nilotinib] + CC1(C)NC(=O)N(c2ccc([N+](=O)[O-])c(C(F)(F)F)c2)C1=O [nilutamide] (first compound 0.2 µM, partner dose 1 µM), the cell count came out at 108% in the test with WM115; 106% with WM1716; 79.5% in the test with WM1745; 94.7% in the test on WM3526; 133% with WM3619; 95.9% in the test with WM451Lu.

Take `CC(C)C[C@H](NC(=O)[C@H](Cc1ccccc1)NC(=O)c1cnccn1)B(O)O` [Bortezomib] + CO[C@@H]1[C@H](N(C)C(=O)c2ccccc2)C[C@H]2O[C@]1(C)n1c3ccccc3c3c4c(c5c6ccccc6n2c5c31)C(=O)NC4 [Midostaurin] (first compound 0.001 µM, partner dose 0.08 µM): the cell count in the test with WM115 is 78.7%; in the test on WM1716, 31.1%; with WM1745, 52.8%; in the test on WM3526, 97.7%; in the test on WM3619, 21.5%; in the test with WM451Lu, 99.8%.

As to `Cn1c(=O)n(-c2ccc(C(C)(C)C#N)cc2)c2c3cc(-c4cnc5ccccc5c4)ccc3ncc21` + Cc1nc(Nc2ncc(C(=O)Nc3c(C)cccc3Cl)s2)cc(N2CCN(CCO)CC2)n1 [dasatanib] (first compound 0.004 µM, partner dose 0.004 µM), the cell count stood at 74.4% in the test with WM115; 76% with WM1716; 77.3% with WM1745; 105% with WM3526; 87.9% in the test with WM3619; 93.6% in the test on WM451Lu.
